20 variants from the RNAGym collection of RNA variant scans (doi:10.7554/elife.90254) can be followed below.

Read counts are not given, so values of variants with three or more changes are uncertain.

First the molecules themselves.
B1: LINE1-full (parent)
chain: UACGUAGGUGGUUUUCCCCUGAUAGUGCUAAGGGGGCCUGGAAGUUUGGACUGGGCAGAGCUCAACACAGCGUGGCAAAGUGGCUGUGGCUAGACUGCCUCUCUGGAUUCCUCGUCACUCAGCAGGGCAUCUCUGAGAGAAAUGCC

Variants of B1 are the subject of the series. Briefly: self-cleavage, relative activity (ratio to wild type); higher = more cleavage; in vitro, sequencing; the parent is a self-cleaving ribozyme.
Consider UACGUAGGUGGUUUUCCCCUGAUAGUGCUAAGGAGGCCUGGAAGUUUGGACUGGGCAGAGCUCAACACAGCGUGGCGAAGUGGCUGUGGCUAGACUGCCUCUCUGGAUCCCCCGUCACUCAGCAGGGCAUCUCUGAGAGAAAUGCC [G34A A77G U109C U112C], for which the self-cleavage was 1.64.

With UACGUUGGUGGUUUUCCCCUGAUAGUGCUAAGGGGGCCUGGAAGUUUGGACUGGGCAGAGCUCAACACAGCGUGGCAAAGUGGCUGUGGCCAGACUGCCUCUCUGGAUUCCUCGUCACUCAGCAGGGCAUCUCUGAGAGGAAUGCC [A6U U91C A140G], the self-cleavage was 0.

Turning to UACGUAGGUGGUUUUCCCCUGAUAGUGCUAAGGGGGCCUGGAAGUUUGGUCUGGGCAGAGCUCAACACAGCGUGGCAAAGUGGCUGUGGCUAGACGGCCUCUCUGGAUUCCUUGUCACUCAGCAGGGCAUCUCUGAGAGAAAUGCC [A50U U96G C113U], the self-cleavage amounted to 0.06.

Turning to UACGUAGGUGGUUUCCCCCUGAUAGUGCUGAGGGGGCCUGGAAGUUUGGACUGGGCAGAGCUCAACACAGCGUGGCAAAGUGGCUGUGGCUAGACUGCCUCUCUGGAUUCCUCGUCACUCAGCAGGGCAUCUCGGAGAGAAAUGCC [U15C A30G U134G], the self-cleavage amounted to 1.15.

As for UACGUAGGUGGUAUUCCCCUGAUAGUGCUAAGGGGGCCUGGAAGCUUGGACUGGGCAGAGCUCAACACAGCGUGGCAAAGUGGCUGUGGCAAGACUGCCUCUCUGGAUUCCUCGUCACUCAGCAGGGCAUCUCUGAGAGAAAUGCC [U13A U45C U91A], the self-cleavage was 0.6.

As for UACGUAGGUGGUUUUCCCCUGAUAGUGCUAAGGGGGCCUGGGAGUUUGGACUGGGCAGAGCUCAACGCAGCGUGGCAAAGUGGCUGUGGCUAGACUGCCUCUCUGGAUUCCUCGUCACUCAGCAGGGCAUCUCUGAGAGAUAUGCC [A42G A67G A141U], the self-cleavage was 0.46.

As for UACGUAGGUGGUUUUCCCCUGAUAGUGCUAAGGGGGCCUGGAAGUCUGGACUGGGCAGAGCUCAACACAGCGUGGCAAGGUGGCUGUGGCUAGACUGCCUCUCUGGAUACCUCGUCACUCUGCAGGGCAUCUCUGAGAGAAAUGCC [U46C A79G U109A A121U], the self-cleavage is 0.95.

Consider UACGUAGGUGGUUUUCCCCUGAUAGAGCUAAGGGGGCCUGGAAGUUUGGACUGGGCAGAGCUCAGCACAGCGAGGCAAAGUGGCUGUGGCUAGACUGCCUCUCUGGAUUCCUCGUCACUCAGCAGGGCAUCUCUGAGAGAAAUGCC [U26A A65G U73A], for which the self-cleavage was 0.

With UACGUAGGUGGUCUUCCCCUGAUAGUGCUAAGGGGGCCUGAAAGUUUGGACUGGGCAGAGCCCAACACAGCGUGGCAAAGUGGCUGUGGCUAGACUGCCUCUCUGGAUUCCUCGUCACUCAGCAGGGCAUCUCUGAGAGAAAUGCC [U13C G41A U62C], the self-cleavage was 0.06.

With UACGAAGGUGGUUCUCCCCUGAUAGUGCUAAGGGGGCCUGGAAGUUUGGACUGGGCAGAGCUCAACACUGCGUGGCAAAGUGGCUGUGGCUAGACUGCCUCUCUGGAUUCCUCGUCACUCAGCAGGGCAUCUCUGAGAGAAAUGCC [U5A U14C A69U], the self-cleavage was found to be 0.12.

With UACGUAGGUGGUUUUCCCCUGAUUGUGCUAAGGGGGCCCGGAAGUUUGGACUGGGCAGAGCUCAACACAGCGUGGCAUAGUGGCUGUGGCUAGACUGCCUCUCAGGAUUCCUCGUCACUCAGCAGGGCAUCUCUGAGAGAAACGCC [A24U U39C A78U U104A U143C], the self-cleavage came to 1.41.

UACGUAGGUGGUUUUCCCCUGAAAGUGCUAAGGGGGCCAGGAAGUUUGGACUGGGCAGAGCUCAACACAGCGUGGCAAAGUGGCUGUGGCUAGACCGCCUCUCUGGAUUCCUCGUCACUCAGCAGGGCAUCUCUGAGAGAAAUGCC [U23A U39A U96C]: the self-cleavage is 0.08.

For UACGUAGGUGGUCUUCCCCUGAUAGUGCUAAGGGGGCCUGGAAGUUUGGACUGGGCAGAGCUCAACACAGCGUGGCAAAGUGGCUGUGGCUAGACUGCCACUCUGGGUUCCUCGUCACUCAGCAGGGCAUCCCUGAGAGAAAUGCC [U13C U100A A107G U132C], the self-cleavage came out at 1.08.

In the case of UACGUAGGUGGUUUUCCCCUGAUAGUGCUAAGGGGGCCUGGAAGUUUGGACUAGGCAGAGCUCAACACAGCGAGGCAAAGUGGCUGUGGCUAGACUGCCUCUCUGGAUUCCUCGUCACUCAGCGGGGCAUCUCUGAGAGAAAUGCC [G53A U73A A124G], the self-cleavage amounted to 1.58.

Regarding UGCGUAGGUGGUUUUCCCCUGAUAGUGCUAAGGGGGCCUGGAAGUUUGGACUGGGCAGAGCUCAACUCAGCGUGGCAAAGUGGCUGUGGCUAGGCUGCCUCUCUGGAUUCCUCGUCACUCAGCAGGGCGUCUCUGAGAGAAAUGCC [A2G A67U A94G A129G], the self-cleavage was determined as 0.

On to UACGUAGGUGGUUUUCCCCUUAUAGUGCUAAGGGGGCCUGGAAGUUUGGACUGGGCUGAGCUCAACACAGCGUGGCAAAGUGGCUGUGGCUAGACUGCCUCUCUGGAUUCCUCGUCACUCAGCAGGGCAUCUCCGAGAGAAAUGCC [G21U A57U U134C], for which the self-cleavage came out at 0.15.

Turning to UACGUAGGUGGUUUUCCCCUGAUAGUGCUAUGGGGGCCUGGAAGUUUGGACUGGGCAGAGCUCAACCCAGCGUGGCAAAGUGGCAGUGGCUAGACUGCCUCUCAGGAUUCCUCGUCACUCAGCAGGGCAUCUCUGAGAGGAAUGCC [A31U A67C U85A U104A A140G], the self-cleavage was 0.

As for UACGUAGGUGGCUUGCCCCUGAUAGUGCUAUGGGGGCCUGGAAGUUUGGACUGGGCAGAGCUCAACACAGCGUGGCAAAGUGGCUGUGGCUAGACUGCCUCUCUGGAUUCCACGUCACAUUGCAGGGCAUCUCUGAGAGAUAUGCC [U12C U15G A31U U112A U119A C120U A121U A141U], the self-cleavage is 0.37.

UACGUAGGUGGUUUCCCCCUGAUAGUGCCAAGGGGGCCUGGAAGUUUGGACUGGGCAGAGCUCAACACAGCGUGGCAAAGUGGCUGUGGCUAGACUGCCUCUCUGGAUUCCUCGUCACUCAGCAGGGCAUCUCUGAGGGAAAUGCC [U15C U29C A138G]: the self-cleavage is 1.81.

Consider UGCGUAGGUGGUCUUCCCCUGAUAGUGCUAAGGGGGCCUGGAAGUUUGGACAGGGCAGCGCUCAACACAGCGUGGCAAAGUGGCUGUGGCUAGACUGCCUCUCUGGAUUCCUCGUCACUCAGCAGGGCAUCUCUGAGAGAAACGCC [A2G U13C U52A A59C U143C], for which the self-cleavage was 0.53.
